# In PubChem BioAssay (Tox21):
# “And” between values parts separate entries of the source, which are not always exact repeats. Equal entries are not always repeated. Some structures have more than one record in an assay (separate samples or runs), and their calls can disagree. The source made the active and inactive calls. Unless noted, the call rests on the fitted dose curve; in most records, active means well fitted curve in the direction sought with a large enough effect in the repeat runs; inconclusive means weak or mixed curves; inactive means no such curve, though single readings can be large; an effect the other way counts as inactive or inconclusive.
# Legend:
# [1] = qHTS assay for small molecule activators of the heat shock response signaling pathway - cell viability counter screen (AID 743209); details: HSE-bla HeLa viability, CellTiter-Glo luminescence, 5 h; activity change, negative = cytotoxicity: at 62.6 µM (top of the series); further: nearly all actives have a fitted effect of over 50% in size; on activity change, negative = cytotoxicity: on the % scale 0 is the no-effect control and ±100 the full control effect
# In short: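 To flag cytotoxic compounds, HSE-bla HeLa cells plated at 1500 cells/well were dosed for 5 h at 37 C, followed by the reporter FRET read and then CellTiter-Glo, with luminescence recorded 30 min after reagent addition.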
# [2] = biological target: Peroxisome proliferator-activated receptor delta (Homo sapiens) (UniProt Q03181); assay: qHTS assay to identify small molecule agonists of the peroxisome proliferator-activated receptor delta (PPARd) signaling pathway (AID 743212; calls by dose curve;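 further: HEK293H cells with PPARd UAS beta-lactamase reporter GeneBLAzer system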; on activation: on the % scale 0 is the no-effect control and ±100 the full control effect); details: HEK293H PPARd-UAS-bla, beta-lactamase FRET ratio, 17 h
# UniProt Q03181, sequence (Q03181 whole entry, looked up): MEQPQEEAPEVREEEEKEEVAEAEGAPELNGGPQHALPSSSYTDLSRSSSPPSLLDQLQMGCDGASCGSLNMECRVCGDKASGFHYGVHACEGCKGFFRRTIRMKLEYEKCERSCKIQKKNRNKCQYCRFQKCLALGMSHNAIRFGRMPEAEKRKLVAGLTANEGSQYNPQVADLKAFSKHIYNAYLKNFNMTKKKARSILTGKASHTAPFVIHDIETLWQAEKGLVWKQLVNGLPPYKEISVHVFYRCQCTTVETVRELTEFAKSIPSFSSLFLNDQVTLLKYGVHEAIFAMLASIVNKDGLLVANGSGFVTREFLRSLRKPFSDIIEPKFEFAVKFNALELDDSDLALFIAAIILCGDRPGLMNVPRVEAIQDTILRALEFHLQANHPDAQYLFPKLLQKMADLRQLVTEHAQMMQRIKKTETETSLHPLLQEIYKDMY
# In short: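 Beta-lactamase reporter readout: a ratiometric FRET signal from the LiveBLAzer substrate after 2 h at room temperature. Compound exposure at 37 °C in PPARδ-bla HEK293H cells driven by an upstream activator sequence.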
# [3] = qHTS assay to identify small molecule antagonists of the estrogen related receptor signaling pathway with the pleiotropic PPARgamma coactivator (PGC) from Tox21 10K library - cell viability counter screen (AID 1224840; active means well fitted cell-killing curve with a large enough effect in the repeat runs, not every such curve was filed as active; inconclusive means weak or mixed curves, or effect the other way; inactive means no such curve, though single readings can be large or run the other way; further: nearly all actives have a fitted effect of over 40% in size)
# In short: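 Seeded PGC/ERR cells (2,000/well, 6 h, 37 C/5% CO2) get compound by pin tool; 17.5 h incubation at 37 C; CellTiter-Fluor added, 30 min, fluorescence measured.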
# [4] = biological target: Cytochrome P450 3A4 (Homo sapiens) (UniProt P08684); assay: Cytochrome P450 Family 3 Subfamily A Member 4 (CYP3A4) small molecule antagonists: luciferase reporter qHTS assay (AID 1671201); further: nearly all actives have a fitted effect of over 50% in size
# UniProt P08684, sequence (P08684 whole entry, looked up): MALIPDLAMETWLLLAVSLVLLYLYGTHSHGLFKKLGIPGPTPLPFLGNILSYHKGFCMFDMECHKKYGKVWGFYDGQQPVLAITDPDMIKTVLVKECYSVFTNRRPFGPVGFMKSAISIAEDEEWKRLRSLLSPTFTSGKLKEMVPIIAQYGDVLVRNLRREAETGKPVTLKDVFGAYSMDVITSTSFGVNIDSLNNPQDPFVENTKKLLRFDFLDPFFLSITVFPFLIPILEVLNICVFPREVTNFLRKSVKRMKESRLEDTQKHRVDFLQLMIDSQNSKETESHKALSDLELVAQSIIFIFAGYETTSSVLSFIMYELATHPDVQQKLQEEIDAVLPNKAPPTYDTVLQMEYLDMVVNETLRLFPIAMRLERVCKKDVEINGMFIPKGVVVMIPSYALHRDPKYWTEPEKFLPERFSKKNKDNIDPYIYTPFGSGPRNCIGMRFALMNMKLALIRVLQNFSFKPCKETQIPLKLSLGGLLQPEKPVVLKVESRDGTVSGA
# In short: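 Proluciferin-to-luciferin conversion by CYP3A4, NADPH-regenerated, 1 h RT; luminescence read as RLU. Ketoconazole as control.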
# [5] = qHTS assay to identify small molecule antagonists of the androgen receptor (AR) signaling pathway - cell viability counter screen (AID 743033; further: nearly all actives have a fitted effect of over 45% in size; on activity change, negative = cytotoxicity: on the % scale 0 is the no-effect control and ±100 the full control effect)
# [6] = qHTS assay to identify small molecule agonists of the TGF-beta/Smad signaling pathway (AID 1346859; active means well fitted activation curve with a large enough effect in the signal ratio in the repeat runs, not every such curve was filed as active; inconclusive means weak or mixed curves; the % refers to the signal ratio)
# In short: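 Each well held 4,000 SBE-bla HEK 293T cells incubated overnight before compound addition; 5 hr later the cleavable FRET substrate went on for 2 hr at room temperature, and fluorescence was read at two emissions.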
# [7] = qHTS RealTime-Glo MT Cell Viability Assay in HEK293 cells - 40 hour (AID 1224874); details: RealTime-Glo luminescence; max response: active compounds read low; further: nearly all actives have a fitted effect of over 50% in size
# In short: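 HEK293 + NanoLuc + prosubstrate, 600 cells/well; 5 h, 37 C/5% CO2; compound 23 nL in DMSO by pintool; 37 C; luminescence read at 0, 8, 16, 24, 32 and 40 h time points.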
# [8] = qHTS assay to identify small molecule agonists of the estrogen receptor alpha (ER-alpha) signaling pathway in the presence of an antagonist - cell viability counter screen (AID 1259386);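 further: cells exposed to compounds for 22 h at 37 °C before the viability read; nearly all actives have a fitted effect of over 30% in size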
# In short: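 The test measures whether compounds kill ER-alpha reporter cells (VM7Luc4E2) under antagonist co-treatment (ICI-182,780, 10.0nM). Fluorescence from CellTiter-Fluor is read after a 22hr exposure.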
# [9] = biological target: Voltage-gated inwardly rectifying potassium channel KCNH2 (Homo sapiens) (UniProt Q12809); assay: Human Ether-a-go-go-Related Gene (hERG) channel small molecule antagonists: fluorescence cell-based qHTS assay (AID 1671200); further: nearly all actives have a fitted effect of over 50% in size
# UniProt Q12809, sequence (Q12809 whole entry, looked up): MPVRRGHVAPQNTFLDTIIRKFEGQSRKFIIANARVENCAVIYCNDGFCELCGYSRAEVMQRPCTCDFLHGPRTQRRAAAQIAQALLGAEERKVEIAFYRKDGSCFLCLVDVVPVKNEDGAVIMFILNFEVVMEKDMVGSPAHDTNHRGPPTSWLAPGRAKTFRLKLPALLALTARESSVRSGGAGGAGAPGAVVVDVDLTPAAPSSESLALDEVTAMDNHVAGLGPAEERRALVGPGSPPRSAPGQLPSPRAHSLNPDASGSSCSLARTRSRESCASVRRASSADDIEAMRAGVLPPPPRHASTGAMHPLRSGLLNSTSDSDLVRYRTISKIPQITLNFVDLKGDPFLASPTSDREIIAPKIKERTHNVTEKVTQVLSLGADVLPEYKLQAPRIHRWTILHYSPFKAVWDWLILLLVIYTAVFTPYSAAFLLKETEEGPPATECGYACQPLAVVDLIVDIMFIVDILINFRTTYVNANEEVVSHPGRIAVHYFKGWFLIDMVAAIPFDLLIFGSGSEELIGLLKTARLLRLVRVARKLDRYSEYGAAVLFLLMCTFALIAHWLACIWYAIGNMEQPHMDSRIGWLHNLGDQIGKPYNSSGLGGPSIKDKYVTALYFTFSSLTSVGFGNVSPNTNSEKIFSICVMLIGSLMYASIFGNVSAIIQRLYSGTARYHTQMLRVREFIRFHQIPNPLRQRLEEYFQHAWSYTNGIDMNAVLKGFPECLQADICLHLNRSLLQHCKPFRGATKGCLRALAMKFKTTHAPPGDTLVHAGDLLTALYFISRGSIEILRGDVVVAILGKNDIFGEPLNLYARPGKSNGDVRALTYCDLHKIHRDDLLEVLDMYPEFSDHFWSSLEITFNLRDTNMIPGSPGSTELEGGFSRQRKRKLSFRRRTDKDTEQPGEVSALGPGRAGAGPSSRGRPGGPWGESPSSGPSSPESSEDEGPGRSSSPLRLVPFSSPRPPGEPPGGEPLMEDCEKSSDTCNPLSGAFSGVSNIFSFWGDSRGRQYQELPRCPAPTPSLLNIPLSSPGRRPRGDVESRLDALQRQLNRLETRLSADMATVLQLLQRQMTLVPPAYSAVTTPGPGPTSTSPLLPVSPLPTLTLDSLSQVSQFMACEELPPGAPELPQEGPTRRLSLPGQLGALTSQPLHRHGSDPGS
# In short: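 Kinetic two-minute fluorescence traces, sampled at 1 s, were collected following thallium stimulus of U2OS cells (1000 per well) that had been cultured overnight at 37 C and loaded with FluxOR II.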
# [10] = qHTS assay to identify small molecule antagonists of the thyroid receptor (TR) signaling pathway (AID 743065); further: nearly all actives have a fitted effect of over 55% in size; on activity, negative = inhibition: on the % scale 0 is the no-effect control and ±100 the full control effect
# In short: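 Antagonism measured as loss of luciferase signal in GH3 cells stably carrying a TRE-luciferase reporter, co-treated with compound and T3 (1 nM final) for 23.5 h at 37 C. Viability was read in the same well by CellTiter-Fluor.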
# [11] = qHTS assay to identify small molecule antagonists of the estrogen related receptor (ERR) signaling pathway from Tox21 library (AID 1224848); further: nearly all actives have a fitted effect of over 50% in size
# In short: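 Luciferase luminescence (ONE-Glo, 30 min room temperature) was the read-out. Cells of the NTP-supplied ERR line, 2,000 per well, were given 6 h at 37 C before compound addition in DMSO and 18 h exposure at 37 C.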
# [12] = A CellTox Green Cytotoxicity Assay to monitor cytotoxicity in HepG2 cells - 32 hour (AID 1224883); further: nearly all actives have a fitted effect of over 50% in size
# In short: (§1)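 Measurements at 0, 8, 16, 24, 32 and 40 h of treatment captured CellTox Green fluorescence in HepG2 cells that had been co-plated with reagent and preincubated 5 h at 37 C/5% CO2.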
# [13] = biological target: Estrogen receptor (Homo sapiens) (UniProt P03372); assay: qHTS assay to identify small molecule antagonists of the estrogen receptor alpha (ER-alpha) signaling pathway (AID 743069; active means well fitted curve in the direction sought with a large enough effect in the signal ratio in the repeat runs, not every such curve was filed as active; inconclusive means weak or mixed curves, or effect the other way; inactive means no such curve, though single readings can be large or run the other way; the % refers to the signal ratio); details: HEK293 ER-alpha-UAS-bla, beta-lactamase ratio, antagonist mode; activity, negative = inhibition: at 69.4 µM (top of the series) unless noted
# UniProt P03372, sequence (P03372 whole entry, looked up): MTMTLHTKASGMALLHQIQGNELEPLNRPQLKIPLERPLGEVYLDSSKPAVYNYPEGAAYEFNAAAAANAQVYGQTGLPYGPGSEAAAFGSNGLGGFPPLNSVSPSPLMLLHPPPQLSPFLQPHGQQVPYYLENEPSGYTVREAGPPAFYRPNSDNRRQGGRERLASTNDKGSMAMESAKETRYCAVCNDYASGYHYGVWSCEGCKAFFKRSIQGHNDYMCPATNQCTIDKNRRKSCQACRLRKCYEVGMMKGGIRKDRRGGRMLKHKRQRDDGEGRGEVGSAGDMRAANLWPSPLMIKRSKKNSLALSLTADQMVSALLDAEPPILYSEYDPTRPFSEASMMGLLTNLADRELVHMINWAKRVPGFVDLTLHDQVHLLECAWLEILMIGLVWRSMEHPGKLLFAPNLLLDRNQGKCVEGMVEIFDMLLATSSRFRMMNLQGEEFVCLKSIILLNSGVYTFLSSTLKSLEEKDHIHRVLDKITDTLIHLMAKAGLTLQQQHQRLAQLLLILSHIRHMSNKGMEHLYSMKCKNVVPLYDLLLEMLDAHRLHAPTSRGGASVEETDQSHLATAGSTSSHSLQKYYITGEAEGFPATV
# In short: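 Antagonist mode: compounds in DMSO were co-added with 17beta-estradiol to ER-alpha-bla HEK293 cells (2% charcoal-stripped serum) and left 18 h at 37C. Reporter inhibition was measured as FRET fluorescence after 2 h LiveBLAzer substrate at room temperature.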
# [14] = A CellTox Green Cytotoxicity Assay to monitor cytotoxicity in HepG2 cells - 24 hour (AID 1224878); further: nearly all actives have a fitted effect of over 45% in size
# In short: as §1
# [15] = A CellTox Green Cytotoxicity Assay to monitor cytotoxicity in HEK293 cells - 32 hour (AID 1224881); further: nearly all actives have a fitted effect of over 40% in size
# In short: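 Tox21 screen in HEK293: membrane-impermeant cyanine dye fluoresces on binding dead-cell DNA; compound pinned 5 h post-seeding, plates held at 37 C, signal read repeatedly through 40 h.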
# [16] = biological target: Acetylcholinesterase (Homo sapiens) (UniProt P22303); assay: Acetylcholinesterase (AChE) small molecule antagonists: fluorescence cell-based qHTS assay (AID 1347398; calls by dose curve; further: nearly all actives have a fitted effect of over 50% in size); details: Potency: AChE activity
# UniProt P22303, sequence (P22303 whole entry, looked up): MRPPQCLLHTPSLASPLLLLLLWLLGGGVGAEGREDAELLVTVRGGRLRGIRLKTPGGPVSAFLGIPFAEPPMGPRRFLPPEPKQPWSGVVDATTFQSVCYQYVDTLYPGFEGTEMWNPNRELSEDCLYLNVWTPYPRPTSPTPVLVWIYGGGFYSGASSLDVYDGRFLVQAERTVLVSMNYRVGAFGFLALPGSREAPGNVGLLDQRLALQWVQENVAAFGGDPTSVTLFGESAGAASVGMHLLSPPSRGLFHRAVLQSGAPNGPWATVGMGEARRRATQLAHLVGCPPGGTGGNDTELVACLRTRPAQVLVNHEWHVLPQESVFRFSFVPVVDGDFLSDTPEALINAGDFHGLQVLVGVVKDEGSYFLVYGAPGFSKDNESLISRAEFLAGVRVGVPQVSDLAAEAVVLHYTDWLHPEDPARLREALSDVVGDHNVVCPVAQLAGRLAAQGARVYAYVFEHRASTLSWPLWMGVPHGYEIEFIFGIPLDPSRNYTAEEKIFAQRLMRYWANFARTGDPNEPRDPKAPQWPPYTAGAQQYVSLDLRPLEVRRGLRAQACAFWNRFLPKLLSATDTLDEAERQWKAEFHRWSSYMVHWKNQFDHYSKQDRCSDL
# In short: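 Cellular AChE activity read as thiocholine from acetylthiocholine hydrolysis, detected by Thiolite Green fluorescence at 490/520 nm after 40 min at room temperature. Compounds were pre-incubated 30 min at 37 C on adherent SH-SY5Y cells.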
# [17] = qHTS assay to identify small molecule antagonists of the retinoic acid receptor (RAR) signaling pathway (AID 1159552; further: nearly all actives have a fitted effect of over 50% in size)
# In short: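 C3RL4 RARE-luc cells, overnight plating; retinol 1 uM final added right after compound; 6 hr 37 C; luciferase read at 30 min RT.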
# [18] = qHTS assay to identify small molecule agonists of the constitutive androstane receptor (CAR) signaling pathway - cell viability counter screen (AID 1224836); further: nearly all actives have a fitted effect of over 45% in size
# In short: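 Using CellTiter-Fluor, viability of HepG2 cells harbouring hCAR and CYP2B6-2.2kb was measured following 23 h incubation with a 15-concentration compound series plus PK11195 (0.75 uM final).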
# [19] = biological target: Nuclear receptor subfamily 1 group I member 3 (Homo sapiens) (UniProt Q14994); assay: qHTS assay to identify small molecule antagonists of the constitutive androstane receptor (CAR) signaling pathway (AID 1224838);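 further: HepG2 cells stably expressing hCAR with CYP2B6 luciferase reporter stimulated by CITCO; nearly all actives have a fitted effect of over 40% in size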
# UniProt Q14994, sequence (Q14994 whole entry, looked up): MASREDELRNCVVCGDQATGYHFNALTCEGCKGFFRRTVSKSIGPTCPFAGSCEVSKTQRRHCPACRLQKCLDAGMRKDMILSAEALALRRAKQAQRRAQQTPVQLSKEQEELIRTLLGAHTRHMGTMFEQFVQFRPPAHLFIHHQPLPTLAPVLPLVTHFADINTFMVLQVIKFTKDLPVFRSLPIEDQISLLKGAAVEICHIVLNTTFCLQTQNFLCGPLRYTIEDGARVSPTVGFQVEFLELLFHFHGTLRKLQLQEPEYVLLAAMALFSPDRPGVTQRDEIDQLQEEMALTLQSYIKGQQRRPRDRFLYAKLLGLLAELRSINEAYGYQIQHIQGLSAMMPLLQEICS
# In short: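 Human hepatoma HepG2 cells expressing hCAR and a CYP2B6 promoter (2.2 kb) luciferase construct; compound titration (15 points) with 50 nM CITCO final, 24 h at 37 C/5% CO2; luminescence via ONE-Glo after 30 min at room temperature.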
# [20] = qHTS assay to identify small molecule antagonists of the constitutive androstane receptor (CAR) signaling pathway - cell viability counter screen (AID 1224837); further: nearly all actives have a fitted effect of over 45% in size
# In short: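 To flag cytotoxic false antagonists, HepG2 hCAR/CYP2B6-2.2kb cells were treated 23 hr with 15-concentration compound series and 50 nM CITCO at 37 C/5% CO2; CellTiter-Fluor fluorescence was the measured end point.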
# [21] = activation: at 62.6 µM (top of the series) unless noted
# Potency means the concentration at half of the fitted maximal effect; tags describe the fitted curve by direction and shape or compound fluorescence and quenching.
smiles,measurement,setting,value
N#CC(Cl)(Cl)Cl,Potency,[1],"inconclusive: 2.39 µM [rising, partial curve]"
same,Potency,[2]; [21],inactive
same,Potency,[3],inactive
CNC(=O)CSP(=S)(OC)OC,Potency,[4],"inconclusive: 36.6 µM [inhibitor, partial curve] and inconclusive: 31.7 µM [inhibitor, partial curve]"
OCC(Br)CBr (stereo not given),Potency,[5],inactive
O=C1CCCN1,Potency,[6],active: 55.5 µM
COC1=CC(=O)O[C@@H](/C=C/c2ccc3c(c2)OCO3)C1,Potency,[3],inactive
same,Potency,[7],"inconclusive: 33.2 µM [cytotoxic, partial curve, poor fit]"
O=S(=O)(NS(=O)(=O)C(F)(F)F)C(F)(F)F,Potency,[1],inactive
same,Potency,[8],"inconclusive: 30.5 µM [cytotoxic, partial curve]"
same,Potency,[9],active: 38.8 µM
same,Potency,[4],"inconclusive: 39.8 µM [inhibitor, partial curve]"
CC(Cl)(Cl)[N+](=O)[O-],Potency,[10],inactive
CC(=O)[C@H]1CC[C@H]2[C@@H]3CC[C@H]4C[C@H](O)CC[C@]4(C)[C@H]3C(=O)C[C@]12C,Potency,[10],"inconclusive: 26.6 µM [inhibitor, partial curve, poor fit]"
same,Potency,[11],"inconclusive: 21.1 µM [inhibitor, partial curve, poor fit]"
CN(C)CCN(C)C,Potency,[12],"inconclusive: 0.488 µM [activator, single point]"
Cc1nnc(-c2ccccc2)c(=O)n1N,Potency,[13],inactive
CC(C)(C)c1ccc(CCOc2ncnc3ccccc23)cc1,Potency,[14],"inconclusive: 54.9 µM [activator, single point]"
same,Potency,[12],"inconclusive: 54.9 µM [activator, single point]"
COS(=O)(=O)c1ccc(C)cc1,Potency,[6],inactive
c1ccc(Nc2ccc(Nc3ccccc3)cc2)cc1,Potency,[5],"inconclusive: 48.8 µM [cytotoxic, partial curve, poor fit]"
same,Potency,[13],active: 1.73 µM [inconclusive]
same,Potency,[15],"inconclusive: 21.8 µM [activator, single point]"
same,Potency,[8],"inconclusive: 10.8 µM [cytotoxic, partial curve, poor fit]"
same,Potency,[16],inactive
same,Potency,[9],active: 38.7 µM
CC1=C(C(=O)Nc2ccccc2)S(=O)(=O)CCO1,Potency,[2]; [21],"inconclusive: 48.9 µM [rising, partial curve]"
same,Potency,[17],inconclusive: 61.1 µM [inhibitor]
same,Potency,[18],"inconclusive: 61.1 µM [cytotoxic, partial curve, poor fit]"
same,Potency,[19],"inconclusive: 68.5 µM [inhibitor, single point]"
same,Potency,[3],"inconclusive: 54.4 µM [cytotoxic, partial curve]"
same,Potency,[8],inconclusive: 76.9 µM [cytotoxic]
O=P(Cl)(Cl)Cl,Potency,[2]; [21],"inconclusive: 0.104 µM [rising, partial curve, poor fit]"
same,Potency,[3],inactive
CCN(CC)c1ccccc1,"activity, negative = inhibition",[13],inconclusive: -18.9% [at 79.1 µM]
OCC(Cl)CCl (stereo not given),Potency,[1],"inconclusive: 0.0305 µM [cytotoxic, full curve]"
same,Potency,[2]; [21],inactive
[O]=[Cd],Potency,[11],"inconclusive: 68.1 µM [inhibitor, partial curve, poor fit]"
same,Potency,[8],"inconclusive: 2.71 µM [cytotoxic, single point]"
CC(C)C(C)(N)C#N (stereo not given),Potency,[1],inactive
COP(=S)(OC)Oc1ccc(SC)c(C)c1,Potency,[13],inactive
same,Potency,[1],"inconclusive: 5.31 µM [cytotoxic, partial curve, poor fit]"
same,activation,[2]; [21],inconclusive: 7.51%
same,activation,[2]; at 62.6 µM (top of the series),inactive: -0.163% and inactive: 0.89%
same,Potency,[16],"inconclusive: 79.6 µM [inhibitor, partial curve, poor fit]"
same,Potency,[9],"inconclusive: 38.5 µM [inhibitor, partial curve]"
CCc1cc(C)cc(CC)c1-c1c(OC(=O)C(C)(C)C)n2n(c1=O)CCOCC2,Potency,[20],"inconclusive: 30.6 µM [cytotoxic, partial curve]"
same,Potency,[4],active: 8.94 µM
COc1cccc2c1cc([N+](=O)[O-])c1c(C(=O)O)cc3c(c12)OCO3,Potency,[5],active: 12.3 µM
same,Potency,[13],active: 21.9 µM [inconclusive]
same,Potency,[1],active: 3.89 µM
same,Potency,[2]; [21],"inconclusive: 21.9 µM [rising, partial curve]"
same,Potency,[18],active: 27.3 µM
same,Potency,[14],active: 21.9 µM
same,Potency,[12],"inconclusive: 34.7 µM [activator, single point]"
same,Potency,[8],active: 61.1 µM
same,Potency,[6],"inconclusive: 15.5 µM [rising, full curve]"
same,Potency,[4],active: 22.4 µM
C1CC2OC2CC1C1CO1 (stereo not given),Potency,[13],inactive
same,Potency,[7],"inconclusive: 21.9 µM [rising, single point]"
